Among the data in PubChem BioAssay AID1362 (SRMLSC, 2008) are inhibition values, retold here.

A word on the inhibition: it is the relative decrease from the control value, in per cent.

Some of the results follow. Shown are side measurements of this screen, not its main read-out; they come without a call. Most of these compounds were active or inconclusive in the main read-out, so they are no random draw.

The assay is described as follows: growth inhibition of WT strain, primary screen, mitochondrial fusion inhibitor project, WT and mutant strains, chemical genetic (AID 1362). Further: tested in S. cerevisiae. Particulars: mitochondrial fusion phenotypic screen, at 10 µM.
As for `COc1ccc(N=Nc2nc3cc(Br)c(Br)cc3n2C)c(OC)c1`, the inhibition was found to be 30.6%.
For `CCCCCCc1cc2cc(C(N)=O)c(=N)oc2cc1O` the value was 74.7%.
The same measure for `CCCC12CN3CCN(CC(C3)/C1=N\NC(=O)c1ccc(C(C)(C)C)cc1)C2`: 8.86%.
The same measure for `O=C1/C(=C/c2cccc3ccccc23)CCCc2ccccc21`: -11.9%; for `Cc1ccccc1Nc1cc2ccccc2c(=O)[nH]1`: 44.7%.
As to `S=C(NCCc1ccc(Cl)cc1)NC1CCCC1`, the inhibition was determined as 46.3%.
The same measure for `CCOC(=O)c1c(C)oc2c1c(CN1CCN(CCO)CC1)c(O)c1ccccc12`: 52.1%; for `COCCNC(=O)c1cccc(Nc2nc(-c3ccccc3)c3cc(Cl)ccc3n2)c1`: 8.57%.
The same measure for `CCCC[C@@H]1CNC(=S)N1CCc1cccc2ccccc12`: 65.3%.
Turning to `CC(Cc1cccs1)NC(=S)Nc1ccc(Cl)cc1` (stereo not drawn), the inhibition stood at 62.7%.
With `CN(C(=O)c1ccc(COc2ccccc2Br)o1)c1ccccc1`, the inhibition worked out at 28.1%.
The same measure for `C/C(=N\Nc1cccc2cccnc12)c1ccc(C)cc1`: 71.7%; for `O=C1OC(c2ccc(F)cc2)=C/C1=C\c1ccc([N+](=O)[O-])o1`: 65.5%.
The same measure for `CN(CC(=O)O/N=C(\N)c1cccc([N+](=O)[O-])c1)S(=O)(=O)c1ccccc1`: -52.8%; for `CCN(CC)CCNC(=O)Cn1c(-c2ccccn2)nc2ccccc21`: -37.8%; for `O=C(Nc1nc(COc2ccccc2)cs1)C12CC3CC(CC(C3)C1)C2`: 23%.
The same measure for `Cc1ccc(C(=O)N2CCN(c3ccccc3Cl)CC2)cc1[N+](=O)[O-]`: 61.3%; for `CCc1cccc(CC)c1NC(=S)NC(C)c1ccccc1` (stereo not drawn): 13.3%.
For the compound `Cc1ccc2nc(-c3ccc(NC(=S)NC4CC(C)(C)NC(C)(C)C4)cc3)sc2c1`, the inhibition amounted to 59.9%.
For `O=C(Nc1nnc(-c2ccc3c(c2)CCCC3)o1)c1ccccc1` the value was 73.9%.
The same measure for `CC(C(=O)NC(=O)NC1CCCCC1)N1CCN(C(c2ccccc2)c2ccccc2)CC1` (stereo not drawn): 51.9%.
The same measure for `N#Cc1sc2nc(N3CCCCC3)c3c(c2c1N)CCCC3`: 4%.
Take `COc1ccc(-n2cccc2/C=C/[N+](=O)[O-])cc1`: the inhibition came out at 58.8%.
The same measure for `COc1ccc(-c2csc(NC(=O)C3COc4ccccc4O3)n2)cc1OC` (stereo not drawn): 55.2%; for `O=C(CCc1ccccc1)Nc1nnc(-c2ccc3c(c2)CCCC3)o1`: 0.5%; for `CCC(=NCc1ccc(Cl)c(Cl)c1)c1nc(-c2ccco2)oc1O`: 49%.
For `CCN1CCN(c2cc(-c3ccccc3)nc3cc(-c4cccc(F)c4)nn23)CC1` the value was 78.9%; for `CC(C)(C)c1ccc(CSc2nnc(-c3ccccn3)n2Cc2ccco2)cc1`, 6.05%.
For `COc1ccc(CNc2oc(COc3ccc(Cl)cc3)nc2C#N)cc1`, the inhibition stood at 48.3%.
Turning to `Cc1ccc(-c2nc(CSc3nc4ccccc4c(=O)n3CCO)cs2)cc1`, the inhibition was 23.5%.
The same measure for `O=[N+]([O-])c1ccc(S(=O)(=O)Nc2ccc(-c3csc(-c4ccccc4)n3)cc2)cc1`: 68.8%; for `S=C(NCCc1ccccc1)N/N=C/c1ccccc1Cl`: 26%.
The same measure for `COc1cccc(CC(=O)Nc2ccc3nc(C)sc3c2)c1`: 49.7%; for `CCNC(=S)N/N=C(\C)c1ccc2ccccc2c1OC(F)F`: 62.7%; for `c1ccc(-c2ccc(C(c3ccccc3)n3ccnc3)cc2)cc1` (stereo not drawn): 51.8%.
For `Cc1oc2ccc(OC(=O)c3cccs3)cc2c1C(=O)OC(C)C` the value was 63.5%; for `Cc1cc(C)cc(NC(=S)NCc2ccc3[nH]c4c(c3c2)CCCC4)c1`, 43.9%; for `COc1ccc(C(=O)c2c(C(F)(F)F)oc3c2C(=O)c2ccccc2C3=O)cc1`, 85.4%.
As for `Cc1cccc(CSCCNC(=S)Nc2ccccc2)c1`, the inhibition stood at 58.7%.
For `Cc1ccc(Nc2nc(N3CCN(C)CC3)nc(N)c2[N+](=O)[O-])cc1C`, the inhibition is 63.8%.
Turning to `Cc1ccc(-c2nc(N)sc2-c2ccccc2)cc1C`, the inhibition is 48.5%.
With `Cc1ccc(CNCC(O)(c2ccccc2)c2ccc(F)cc2)cc1` (stereo not drawn), the inhibition came out at 10.4%.
The same measure for `O=C(Nc1nnc(-c2ccc3c(c2)OCCO3)o1)c1ccc(Cc2ccccc2)cc1`: 32.4%; for `COc1cccc2cc(C(=O)N3CCc4ccccc43)c(=O)oc12`: 1.39%.
For `OC(CSc1c(Cl)cccc1Cl)CN1CCN(c2ccccc2F)CC1` (stereo not drawn) the value was 54.7%; for `COc1cccc(OCCN2CCN(c3ncnc4c3cnn4-c3ccccc3)CC2)c1`, 41.8%.
The same measure for `CN(NC(=S)Nc1ccc(OC(F)F)cc1)C(=S)Nc1ccc(OC(F)F)cc1`: 24.9%.
For `O=C(Nc1ccc(OC(F)F)cc1)Nc1cccc(C(F)(F)F)c1`, the inhibition is 63.7%.
Take `S=c1[nH]nc(-c2ccccc2)n1/N=C/c1ccc(-c2ccccc2Cl)o1`: the inhibition was 10.5%.
In the case of `OCCCc1nc2n(n1)C(c1cccs1)C=C(c1ccc(Br)cc1)N2` (stereo not drawn), the inhibition amounted to 29%.
Take `CCN1/C(=C/c2ccc3cccc(C)c3[n+]2CC)Sc2ccccc21`: the inhibition was 60.2%.
For `O=C(OCC1OC2OC3(CCCCC3)OC2C2OC3(CCCCC3)OC12)c1ccccc1` (stereo not drawn) the value was 44%; for `Cc1cc(O)c(NC(=S)NC(=O)c2ccc(-c3ccc(Cl)cc3)o2)cc1C`, 57.6%.
For `CCC(OC(=O)c1cc2sccc2n1C)C(=O)NCc1ccco1` (stereo not drawn) the value was 43.8%; for `Cc1cccc2nc(-c3ccccc3)nc(N3CCC(O)(c4ccc(Cl)cc4)CC3)c12`, 12.4%.
For `CCCNC(=O)c1ccc2c(c1)C1C3CCC(C3)C1C(c1ccccc1)N2` (stereo not drawn) the value was 24.1%; for `Cc1ccc(C(=O)OCCN2CCN(c3ncc(C(F)(F)F)cc3Cl)CC2)cc1`, 61.5%.
Take `Cc1cc(C)cc(NC(=S)N(Cc2ccc(Br)cc2)Cc2ccc(C(=O)O)cc2)c1`: the inhibition turned out to be 30.2%.
The same measure for `COC(=O)CSc1nc(SCc2ccc(C)cc2)nc2c1CCCC2`: 56.6%; for `CN1C=CC=C/C1=C1\SC(=S)N(c2ccccc2)C1=O`: -4.2%.
The same measure for `O=c1c2ccccc2c(-c2ccc(O)cc2)nn1-c1cccc(C(F)(F)F)c1`: 81.6%; for `COc1ccc(/C=C/C(=O)N2CCN(c3ccccn3)CC2)c2ccccc12`: 10.9%.
With `O=C(COC(=O)CCCOc1ccc(Cl)cc1Cl)Nc1cccc(Cl)c1`, the inhibition is -8.87%.
For `COC(=O)C(CC(=O)c1ccc(Cl)cc1)c1ccc(C(C)C)cc1` (stereo not drawn) the value was 43.6%; for `O=C(NCC(c1ccco1)N1CCCCC1)c1ccc(OCc2ccccc2)cc1` (stereo not drawn), 63.7%.
The same measure for `Cc1ccc(Nc2ccc(-n3ccnc3)nn2)cc1C`: 62.5%; for `O=C1CC(c2cccc(Br)c2)c2cc3c(cc2N1)CCC3` (stereo not drawn): 64.2%.
The same measure for `CCCOC(=O)c1ccc(Oc2cn[nH]c2-c2ccc(OC)cc2O)cc1`: -18.2%; for `CC(Oc1ccc(Cl)cc1Cl)c1ccnc2nc(N3CCOCC3)nn12` (stereo not drawn): 45.1%; for `Cc1cccc(N2CCN(C(=O)c3c(C)nn(Cc4ccccc4Cl)c3C)CC2)c1C`: 11.9%.
With `COc1ccc(-c2nc(N)nc(C)c2Oc2ccccc2Br)c(O)c1`, the inhibition stood at 80%.
The same measure for `COc1ccc(-n2cc(-c3ccccc3)c3c(N4CC(C)OC(C)C4)ncnc32)cc1` (stereo not drawn): 6.04%; for `CC12COC3(C(=O)Nc4ccc5ccccc5c4)CC1CCC32C` (stereo not drawn): 46.8%.
Consider `Nc1ccc2c(c1)C(=O)C(=O)c1ccccc1-2`, for which the inhibition was found to be 93.5%.
Turning to `CC1CC2=C(NC(=S)NC2c2cccc(F)c2)/C(=C/c2cccc(F)c2)C1` (stereo not drawn), the inhibition was -0.58%.
The same measure for `O=C(C1CCCCC1)N(Cc1ccccc1)c1ccccn1`: -9.75%; for `FC(F)Sc1ccc(NC(=S)NCC2CCCCC2)cc1`: 63.3%.
The same measure for `COC(=O)c1c(NC(NC(=O)C(C)C)C(Cl)(Cl)Cl)sc2c1CCC2` (stereo not drawn): 23.4%.
`C[C@H]1CC[C@H]2C(=O)N3[C@H](c4ccccc4Br)[C@@H](C)CC[C@H]3C(=O)N2[C@@H]1c1ccccc1Br`: the inhibition came to 25.4%.
The same measure for `COc1cccc(-c2nc(-c3ccc(NC(=O)c4cccs4)cc3)no2)c1`: -3.65%; for `S=C(Nc1ccc(Oc2ccccc2)cc1)NC1CCCCC1`: 24.4%; for `COc1ccccc1/C=C\C=N\n1c(-c2ccc(Cl)cc2Cl)n[nH]c1=S`: 14.6%.
For `CCS(=O)(=O)CCSc1nc2c(cc1C#N)CCCC2` the value was 35.4%; for `COc1ccc(C(=O)/C=C/c2ccc(O)cc2)c(O)c1CC=C(C)C`, 73.2%.
The same measure for `CC1=C(C)/C(=N\OS(=O)(=O)c2ccccc2)C=CC1=O`: 79.3%; for `Cc1ccc(COc2ccccc2C(=S)N2CCCC2)cc1`: 38.4%.
With `CCn1cc(C(=O)OCC(=O)c2cc(C)n(-c3cccc(C(F)(F)F)c3)c2C)c(=O)c2ccc(C)nc21`, the inhibition was found to be 0.14%.
Turning to `CN1CCN(C(=O)c2cc(COc3c(F)cccc3F)on2)CC1c1ccccc1` (stereo not drawn), the inhibition turned out to be 73%.
For `CCOC(=O)N1CCN(S(=O)(=O)c2ccc(C)c(C)c2)CC1` the value was -2.03%; for `COc1cnc(-c2ccccn2)nc1Sc1ccc(F)cc1`, 64.7%; for `Cc1cc(C)c(OC2(c3ccccc3)OC(=O)c3ccccc32)c(C)c1` (stereo not drawn), 44.5%.
For `Cc1ccc(CN=Cc2[nH]c3ccc(Br)c(Cl)c3c2O)cc1` the value was 39.8%; for `COC(=O)c1ccc(NC(=O)Nc2ccc(F)c(Cl)c2)cc1`, 7.47%; for `Cc1csc(NC(=O)c2c(O)c3c(n(CC(C)C)c2=O)CCCC3)n1`, -10.7%.
In the case of `Cc1cccc(N/N=C(\C=N\N)C(=O)c2ccc(Br)cc2)c1`, the inhibition is -4.1%.
For `COc1ccc(C)cc1N(C(=O)c1ccc(F)cc1)c1nc2ccccc2s1` the value was 22%.
The same measure for `Cc1cccc(C)c1OCCOC(=O)c1n[nH]c2ccccc12`: 32.7%; for `O=C(Nc1ccc(N2CCCCC2)cc1)c1ccccn1`: 41.5%.
On to `C(=N\NC1=Nc2cccc3cccc1c23)/c1ccccn1`, for which the inhibition was found to be 36%.
The same measure for `CCOC(=O)c1c(-c2ccccc2)csc1NC(=O)CSc1nncs1`: 26.8%; for `C/C(=N\N=C(/N)SC1CC(=O)N(c2cccc(Cl)c2)C1=O)c1cccs1` (stereo not drawn): 18.5%; for `CCOC(=O)c1sc(NC(=O)/C=C/c2cnn(C)c2C)c(C(=O)OC(C)C)c1C`: -7.06%.
For the compound `COc1ccc2c(c1)CCc1c(C(=O)N3CC4(C)CC3CC(C)(C)C4)noc1-2` (stereo not drawn), the inhibition was found to be 29.1%.
For `Cc1ccc(C(C)C)c(OCc2ccc(C(=O)N/N=C/c3ccc(O)cc3O)cc2)c1` the value was 0.49%.
The same measure for `CC1CCCC(NC(=O)CNC(=S)N(Cc2ccccc2)Cc2cccs2)C1C` (stereo not drawn): 28.4%; for `CCOC(=O)c1c(-c2ccc(C)o2)csc1NC(=O)CN1CCCCC1`: 76.5%.
The same measure for `Cc1ccccc1N1CCN(c2ncnc3scc(-c4cccs4)c23)CC1`: -1.42%; for `Cc1ccc(NC(=S)Nc2ccc(Cl)c(Cl)c2)c(OC(F)F)c1`: 79.8%.
